Assay results reported in the RNAGym collection of RNA variant scans (doi:10.1093/nar/gkz1192).
Read counts are not given, so values of variants with three or more changes are uncertain.

B1: CPEB3 Ribozyme (parent)
chain: UAACAGGGGGCCACAGCAGAAGCGUUCACGUCGCAGCCCCUGUCAGAUUCUGGUGAAUCUGCGAAUUCUGCUGUAUAUCUC

Variants of: B1
Assay: self-cleavage, relative activity (ratio to wild type); higher = more cleavage; in vitro, sequencing
In short: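 Barcoded CPEB3 ribozyme mutants, produced by rounds of error-prone PCR, self-cleaved while being transcribed with T7 RNA polymerase for 5 hours at 37°C and during a subsequent 15 min DNase I step before EDTA was added. Sequencing of template-switched cDNA on Illumina gave cleaved and total reads, and DNA sequencing assigned barcodes to variants. Each variant's relative activity is its cleaved/total read fraction divided by the unmutated ribozyme's fraction, averaged across three batches. A variant needed a minimum of 5 reads.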

Row | Variant | self-cleavage
1 | UAACAGGAGGCCACAGCAGAAGCGUUCACGUCUCAGCCCCAGUCAGAUUCUGGUGAAUUUGCGAAUUCUGCUGUAUAUCUC [G8A G33U U41A C59U] | 0.06
2 | UAACAGGAGGCCACAGCAGAAGCGUUCACGUCCCAGCCCCUGUCAGAUUCUGGUGAGUCUGCGAAUUCUGCUGUGUAUCUC [G8A G33C A57G A75G] | 0.14
3 | UAACAGGAGGCCACAGCAAAAGCGUUCACGUCGCAGCCCCGGUCAGAUCCUGGCGAAGCUGCGAAUUCUGCUGUAUAUCUC [G8A G19A U41G U49C U54C U58G] | 0.07
4 | UAACAGGAGGCCACAGCAGAAGCGCUCACGUCGCUGCCCCUGUCAGAAUCUGGCGAAUCAGCGAAUUCUGCUGUAUAUCUC [G8A U25C A35U U48A U54C U60A] | 0.11
5 | UAACAGGAGGCCACAUCUGAAGCGUUCACGUCGCAGCCCCUGUCAGAUUCUGGUGAAUCUGCGAAUUCUGCUGUAUAUCUC [G8A G16U A18U] | 0.06
6 | UAACAGGAGGCCACAGCAGAACCGUUCACGUCGCGGCCCCUGUCGGAUUCUGGUGAAUCCGCGAGUUCAGCUGUAUAUCUC [G8A G22C A35G A45G U60C A65G U69A] | 0.04
7 | UAACAGGAGGCCACAGCAGAAGCGUUCACGUCACAGCCCCUGUCAGAUUCUGGUGAAUCUGCAAAUUCUGCCGUAUAUCUC [G8A G33A G63A U72C] | 0.06
8 | UAACAGGAGGCCACAGCACAAGCGUUCACGUCGCAGCCCCUGUCAGAUUCUGGUGAAUCUACGAAUUCUGCUGUAUAUCUC [G8A G19C G61A] | 0.16
9 | UAACAGGAGGCCACAGCAGAAACGUUCACGUCGCAGCCCCAGUCAGAUUCUGGUGAAUCUGCGAAUACUGCUGUAUAUCUC [G8A G22A U41A U67A] | 0.05
10 | UAACAGGAGGCCACAGCAGAAGCGUUCACGUCGCAGCCCCUGUCAAACCCUGGUGAAUCUGCGAAUUCUGCUGUAUAUCUC [G8A G46A U48C U49C] | 0.18
11 | UAACAGGAGGCCACAGCAGAAGCGCUCUCGUCGCAGCCCCUGUCAGAUUCUGGUGAAUCUGCGAAUUCUGCUGUAUAUCUC [G8A U25C A28U] | 0.04
12 | UAACAGGAGGCCACAGCAGAAGCGUUCACGUCUCAGCCCCAGUCAGAUUCUGGUGAGUCUGCGAAUUCUGCUGUAUAUCUC [G8A G33U U41A A57G] | 0.05
13 | UAACAGGAGGCCACAUCAGAAGCGUUCACGUCGCAGCCCCUGUCAGAUUCUGGUGAGUCUGCGAAUUCUGCUGUAUAUCUC [G8A G16U A57G] | 0.05
14 | UAACAGGAGGCCACAGCAGAAGCAUUCACGUCGCAGCCCCCGUCAGAUUCUGGUGUAUCUGCGAAUUCCGCUGUAUAUCUC [G8A G24A U41C A56U U69C] | 0.07
15 | UAACAGGAGGCCACAGCAGAAGCGCUCACGCCGCUGCCCCUGUCAGAUUCUGGUGAAUCUGCGAAUGCUGCUGUAUAUCAC [G8A U25C U31C A35U U67G U80A] | 0.05
16 | UAACAGGAGGCCACAGCAGAAGCGCUCACGUCGCAGCCCCUGUCAGAUUCUGGUGAUUCUGCGAAUUCUGCCGUAUAUCUC [G8A U25C A57U U72C] | 0.07
17 | UAACAGGAGUCCACUCCAGAAGCGUUCACGCCGCAGCCCCUGUCAGAUUCUGGUGAAUCUGCGAGUUCUGCUGUAUAUCUC [G8A G10U A15U G16C U31C A65G] | 0.13

Row | Variant | self-cleavage
18 | UAACAGGAGGCCACAGCAGAAGCGAUCACGUCGCAGCCCCUGACAGAUUCUGGUGAAUCUGCGAAUUUUGCUGUAUUUCUC [G8A U25A U43A C68U A77U] | 0.04
19 | UAACAGGAGGCCACAGCAGAAGCGCUCACGUCGCGGCCCCAGUUAGAUACUGGUGAAUCAGCGAAUUCUGCUGUAUAUCUC [G8A U25C A35G U41A C44U U49A U60A] | 0.23
20 | UAACAGGAGGCCACAGCAGAAGCGCUCACGUCGCAGCCCCUGUCUGAUUCUGGUGAAUCUGCGAAUUCUGCUGUAGAUCUC [G8A U25C A45U U76G] | 0.07
21 | UAACAGGAGGCCACAGCAGAAGCGUUCACGUCGCAGCCCCUGUCAGAUUCUAGUGAAUCUGCGAAUACUGCUGCUUAUCCC [G8A G52A U67A U74C A75U U80C] | 0.19
22 | UAACAGGAGGCCACAUCAGAAGCGUCCGCGUCGCAGCCCCUGUCAGAUUCUGGUGAAUCUGCGAAUUCUGCUGUAUAUCUC [G8A G16U U26C A28G] | 0.07
23 | UAACAGGAGGCCACAGCAGAAGCGCUCACGUCGCAGCCCCUGUCAGAUUCUAGUGAAUCUGCGAAUUCUGCUGUACGUCUC [G8A U25C G52A U76C A77G] | 0.05
24 | UAACAGGAGGCCACAGCAGAAGCGUUCACGUCCCAGCCCCUGUCAGAUUCUGGUGAGUCUGCGAAUUCUGCUGUAUAUCUC [G8A G33C A57G] | 0.07
25 | UAACAGGAGUCCACAGCAGAAGCGUUCUCGUCGCAGCCCCUGCCAGAUUCGGGUGAAUCCGCGACUUCUGCUGUAUAUCUC [G8A G10U A28U U43C U51G U60C A65C] | 0.03
26 | UAACAGGAGGCCACAGCAGAAGCGCUCACGUCGCAGCCCCAGUCAGAUUCUGGCGAAUCUGCGUAUUCUGCUGUAUAUCUC [G8A U25C U41A U54C A64U] | 0.06
27 | UAACAGGAGGCCACAGCAGAAGCGCUCACGUCGCAGCCCCUGUAAGAUCCUGGUGAAUCUGCGAAUUCUGCUGUAUAUCUC [G8A U25C C44A U49C] | 0.05
28 | UAACAGGAGGCCACAGCAGAAGCGCUCAUGUCGCAGCCCCUGUCAGAUCCUGGUGGAUCUGCGAAUUCUGCUGUAUAUCCC [G8A U25C C29U U49C A56G U80C] | 0.06
29 | UAACAGGAGGCCACAGCAGAAGCGUUCACGUCACAGCCCCUGUCAGAUUCUGGUGAAUCUGCGGAUUCUGCUGUAUAUCUC [G8A G33A A64G] | 0.04
30 | UAACAGGAGGCCACAGCAGAAGCGUUCACGUCUCAGCCCCUGUCAGAUUCUGGUGAAUCUGCGAACUCCGCUGUAUUUCUC [G8A G33U U66C U69C A77U] | 0.06
31 | UAACAGGAGGCCACAGCAGAAGCGCUCACGUCGCAGCCUCUGUCAGAUUCUGGUGAAUCUGCGAAUUCUGCCGUAUAUCGC [G8A U25C C39U U72C U80G] | 0.06
32 | UAACAGGAGGCCACAGCAGAAGCGCCCACGUCGCAGCCCCUGUCAGAUUCUGGCGAAUCUGCGAAUUCUGCUGUAUAUCUC [G8A U25C U26C U54C] | 0.27
33 | UAACAGGAGGCCACAGCAGAAGCGAUCACGUCGCAGCCCCCGUCAGAUUCUGGCGAAUCUGCGAAUUCCGCUGUAUAACUC [G8A U25A U41C U54C U69C U78A] | 0.05
34 | UAACAGGAGGCCACAGCAGAAGCGCUCACGUCGCGGCCCCUGUCAGGUUCUGGUGAAUCUGCGAAUUCUGCUGUAUAUCUC [G8A U25C A35G A47G] | 0.21
